Results: publication PMC4336329 (PLoS ONE, 2015)
In all, about 310,000 compounds went through this assay and about 2,200 (0.71%) showed an effect of 50% or more. Effects have a minus sign here. Some of the results follow.

biological target: human ether-à-go-go-related gene (hERG) potassium channel (human, UniProt Q12809); experiment: primary screen, population patch clamp on CHO cells stably expressing hERG
Sequence (Q12809 whole entry, looked up): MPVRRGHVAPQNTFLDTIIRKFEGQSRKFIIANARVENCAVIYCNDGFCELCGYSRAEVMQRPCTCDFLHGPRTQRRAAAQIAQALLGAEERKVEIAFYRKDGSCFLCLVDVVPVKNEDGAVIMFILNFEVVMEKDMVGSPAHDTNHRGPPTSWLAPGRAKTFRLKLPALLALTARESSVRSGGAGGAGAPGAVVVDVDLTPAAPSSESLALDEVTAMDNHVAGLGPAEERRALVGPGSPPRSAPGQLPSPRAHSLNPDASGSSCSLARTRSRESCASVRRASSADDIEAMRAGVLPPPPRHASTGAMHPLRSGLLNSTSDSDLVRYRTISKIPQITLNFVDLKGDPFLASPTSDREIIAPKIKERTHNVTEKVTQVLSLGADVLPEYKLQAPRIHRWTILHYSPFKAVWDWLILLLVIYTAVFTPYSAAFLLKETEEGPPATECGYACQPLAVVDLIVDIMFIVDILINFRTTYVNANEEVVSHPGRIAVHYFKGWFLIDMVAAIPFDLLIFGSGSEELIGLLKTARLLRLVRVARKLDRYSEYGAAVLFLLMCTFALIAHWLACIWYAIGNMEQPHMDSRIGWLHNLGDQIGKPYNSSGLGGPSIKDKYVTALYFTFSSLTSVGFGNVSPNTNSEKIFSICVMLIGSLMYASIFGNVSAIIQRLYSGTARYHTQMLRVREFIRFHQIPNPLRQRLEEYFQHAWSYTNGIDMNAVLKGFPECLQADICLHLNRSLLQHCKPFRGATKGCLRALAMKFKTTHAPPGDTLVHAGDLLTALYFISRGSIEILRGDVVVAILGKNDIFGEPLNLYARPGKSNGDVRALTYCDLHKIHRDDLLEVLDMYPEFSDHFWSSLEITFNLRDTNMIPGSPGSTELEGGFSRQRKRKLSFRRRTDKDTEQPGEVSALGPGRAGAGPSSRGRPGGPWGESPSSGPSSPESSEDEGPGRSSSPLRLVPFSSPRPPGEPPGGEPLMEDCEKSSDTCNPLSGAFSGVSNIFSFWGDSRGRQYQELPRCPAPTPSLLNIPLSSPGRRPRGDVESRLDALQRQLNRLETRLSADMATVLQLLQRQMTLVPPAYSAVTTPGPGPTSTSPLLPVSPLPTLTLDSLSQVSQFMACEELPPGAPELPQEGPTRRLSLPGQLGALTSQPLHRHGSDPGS

Structure (SMILES)	hERG current change (%, negative = inhibition) at 1uM
O=C(NC1CCCCC1)C(c1ccc(F)cc1)N(Cc1ccc2c(c1)OCO2)C(=O)c1cnsn1 (centres unmarked)	-3.38%
CCCOc1ccc(-c2nc[nH]c2[N+](=O)[O-])cc1	18.1%
Cc1ccc(CNC(=O)C2CCC(=O)N2Cc2ccc(C)cc2)cc1 (centres unmarked)	-23.5%
NC(=O)CC(O)c1cccc(Cl)c1 (centres unmarked)	9.26%
CC(=O)Nc1ccc(NC(=O)CSc2ncc(C(=O)Nc3ccc(Cl)cc3)c(=O)n2C)cc1	0.0038%
OCn1c2ccccc2c2ccccc21	15.7%
COc1cc(C)c(C(C)C)cc1S(=O)(=O)n1ccnc1	3.1%
Cc1cc(C)cc(NC(=O)COc2coc(CN3CCN(c4ccccc4)CC3)cc2=O)c1	14.2%
CCN(CC)S(=O)(=O)c1ccc(Cl)c(NC(=O)c2cc(Cl)ccc2Cl)c1	9.69%
CNC(=O)c1ccc(-c2ccc(Cl)c(Cl)c2)s1	7.78%
CCNc1nc(NCC)n2c(SC(C(=O)Nc3cc(Cl)cc(Cl)c3)c3ccccc3)nnc2n1 (centres unmarked)	11.1%
CCOc1ccccc1NC(=O)CN(Cc1ccccc1)S(C)(=O)=O	-7.35%
C=CCn1c(C)cc(C(=O)CSc2nnc3c(Cl)cc(Cl)cn23)c1C	-8.59%
COc1ccc(C(=O)Nc2ccccc2C(=O)NCc2ccco2)cc1	10.7%
COc1ccc(C)cc1NC(=O)c1ccc(S(=O)(=O)N2CCCCC2)cc1	19.1%
O=C(N1CCOCC1)C(F)(F)C(F)(F)C(F)(F)C(F)(F)C(=O)N1CCOCC1	2.47%
CC(c1ccc2c(c1)OCO2)n1c(=S)[nH]c2ccccc2c1=O (centres unmarked)	10.5%
Cc1noc(NS(=O)(=O)c2ccc(N3Cc4ccccc4C3=O)cc2)c1C	12.9%
CCOc1ncccc1C(=O)OCC(=O)NC(=O)c1ccccc1	8.25%
CC(C)CC(NC(=O)OC(C)(C)C)c1cn([C@@H](CCCCNC(=O)OC(C)(C)C)C(=O)N2CCN(C(=O)OC(C)(C)C)CC2)nn1 (some centres unmarked)	15.1%
CCc1ccc(C(=O)Nc2cc(C)on2)o1	14.8%
Cc1cccc(-n2c(-c3ccccc3)nc3ccccc3c2=O)n1	7.74%
O=C(NC1CCCCC1)C(c1ccccc1)N1CCCC1 (centres unmarked)	9.11%

Structure (SMILES)	hERG current change (%, negative = inhibition) at 1uM
COc1ccc(-c2nnc3c4ccccc4c(C)nn23)cc1	1%
O=C(NC1CC2CCCC(C1)N2S(=O)(=O)c1ccccc1)c1ccccc1 (centres unmarked)	-9.46%
COc1ccc(-n2c(C)c(C)c3c(NCCO)ncnc32)cc1	13.9%
COc1ccc(N2CCN(C(=O)/C(C#N)=C/c3ccccc3)CC2)cc1	6.04%
CC(C)CCn1c(=O)c2ccccc2n2c(CN3CCCC3)nnc12	12.2%
O=C(COC(=O)c1cc(S(=O)(=O)NCc2ccccc2)ccc1O)c1cc2ccccc2o1	13.3%
CC(C)c1ccc(-n2c(O)c(C=NCCN3CCNCC3)c(=O)[nH]c2=S)cc1	24.2%
COc1ccc(C(=O)COC(=O)/C=C/c2ccccc2)cc1	6.38%
CN(CCOc1ccc(Cl)cc1)CC(=O)Nc1ccc(OC(F)(F)F)cc1	14.1%
O=C(OC1CCOC1=O)c1cncc(Br)c1 (centres unmarked)	-12%
Cc1cc(C(=O)N/N=C/c2ccc[nH]2)n[nH]1	13.9%
COc1ccccc1N1CCN(C(=O)Cn2nnc(-c3ccncc3)n2)CC1	-7.1%
Cc1c(N=C2SC(CC(=O)Nc3ccccc3)C(=O)N2CCN2CCOCC2)c(=O)n(-c2ccccc2)n1C (centres unmarked)	11.2%
O=C(c1ccc2c(c1)OCO2)N1CCN=C1SCc1ccccc1	-5.15%
O=C(COC(=O)C1CCN(S(=O)(=O)c2cccs2)CC1)NCc1ccccc1	-5.11%
NC(=O)c1nc(-c2ccco2)nc2c1[nH]c(=O)n2-c1ccc(Cl)c(Cl)c1	2.34%
Clc1ncc(Cn2cccn2)s1	10.5%
COc1ccc(S(=O)(=O)N2CC3CCCN3c3cc(C(F)(F)F)ccc32)cc1 (centres unmarked)	15.5%
COc1ccc(NC2CCCN(C(=O)c3ccc4nccnc4c3)C2)cc1OC (centres unmarked)	13.9%
Cc1ccc(C2(c3noc(CN(C)CC4CCCCO4)n3)CCCC2)cc1 (centres unmarked)	16.6%
COC(=O)C(CC(C)C)Oc1ccc2c(C)cc(=O)oc2c1 (centres unmarked)	7.02%
O=C(NCCC(=O)N1CCCCCCC1)c1ccc(Br)cc1	3.66%
O=C(O)C(=O)O.O=[N+]([O-])c1ccccc1CNC1CCCCCC1	11.3%

Structure (SMILES)	hERG current change (%, negative = inhibition) at 1uM
CCc1cccc(C)c1NC(=O)CSc1nnc(C)o1	-4.09%
O=C(NCC(=O)N(c1ccccc1)C(C(=O)NC1CCCCC1)c1cccnc1)c1cccs1 (centres unmarked)	5.12%
CC(C)Cn1cc(C(=O)NCCCN2CCC(C)CC2)c2c3ccccc3n(C)c2c1=O	2.99%
COc1ccc(S(=O)(=O)NNC(=O)c2cccs2)cc1	7.26%
Cl.O=[N+]([O-])c1ccccc1/C=N/NC1=NCCCCC1	-0.325%
C=CCn1c(=S)[nH]c2nc3c(cc2c1=O)COC(C)(C)C3	14%
CCC1Oc2ccccc2N(CC(=O)NC2CCCC2)C1=O (centres unmarked)	9.35%
Cc1ccnc(N/C=C/C(=O)c2ccc(Br)cc2)c1	13%
O=C(O)Cc1c[nH]c2cccc(O)c12	14%
CCCCC1S/C(=N/N=C/c2ccc(OC)cc2)N(Cc2ccc(OC)cc2)C1=O (centres unmarked)	15.1%
COc1ccc([C@H]2CC(=O)C=C(C#CC(C)(C)C)C2)cc1	15.1%
NS(=O)(=O)c1ccc(-c2ccc(C=C3C(=O)NC(=O)NC3=O)o2)cc1	9.14%
NC(=O)NC(c1ccc(Cl)cc1)c1ccccc1Cl (centres unmarked)	7.43%
O=S(=O)(c1ccc(Cl)cc1)c1nc(-c2ccco2)oc1N1CCOCC1	-16.7%
COc1ccc2c(=O)c(N3C(=O)c4ccccc4C3=O)c(C)oc2c1	7.41%
c1ccc(SCc2nc3ccccc3[nH]2)cc1	-3.17%
O=S1(=O)CCN2C(=N1)Sc1c2ccc2c1CCCC2	10%
C=CCn1c(-c2csc(-c3ccc(Cl)cc3)n2)n[nH]c1=S	8.49%
Cc1cc(=O)n2nc(N3CCCC(C(=O)N4CCOCC4)C3)sc2n1 (centres unmarked)	-1.57%
CCOC(=O)c1nc(NCc2ccccc2F)c2ccccc2n1	10.1%
COc1ccc(CN=Cc2c(C(F)(F)F)[nH][nH]c2=O)cc1	14.6%
O=c1c2ccccc2nnn1COc1ccc(Cl)cc1Br	8.33%
COCCN(C(=O)CN1CCc2ccccc2C1)c1c(N)n(Cc2ccccc2)c(=O)[nH]c1=O	-17.4%

Structure (SMILES)	hERG current change (%, negative = inhibition) at 1uM
CCOCCCNC(=O)C(NC(=O)Cc1cccs1)c1ccc(Cl)cc1 (centres unmarked)	12.6%
NNC(=O)c1cccn(Cc2cccc(C(F)(F)F)c2)c1=O	12.6%
Cc1ccc(/C=N/NC(=O)CSc2nc3ccccc3n2C)s1	12.4%
CC1CCN(C2=C(NS(=O)(=O)c3ccc(Cl)cc3)C(=O)c3ccccc3C2=O)CC1	3.98%
Cc1cccc(NC(=O)c2nc[nH]c2C(=O)Nc2ccccc2[N+](=O)[O-])c1	2.49%
Cc1ccc(/C(N)=N/OC(=O)CCC2CCCCC2)cc1	2.32%
O=C(Nc1ccc(C(=O)O)cc1)/C(=C\c1ccc2c(c1)OCO2)NC(=O)c1ccc(Br)o1	11.8%
O=C(c1cc(-c2ccccn2)nc2ccc(Br)cc12)N1CCN(S(=O)(=O)c2ccccc2)CC1	16.4%
COc1ccccc1CN1Cc2cccc3c2[C@@H](CC1=O)[C@H](O)[C@H](O)C3	-7.92%
Cc1ccc(OCC(=O)NCc2cccs2)cc1	5.36%
CN(C(=O)COC(=O)c1ccccc1Nc1ccccc1)C1CCS(=O)(=O)C1 (centres unmarked)	4.88%
CCN1/C(=C\C=C2\C(=O)N(C)C(=S)N2C)Sc2ccccc21	18.2%
CN(C(=O)c1cccc(C#N)c1)c1nnc(-c2cnccn2)s1	2.69%
COC(=O)c1sc(NC(=O)c2ccc([N+](=O)[O-])o2)c(C#N)c1C	12.6%
O=C(Nc1cc(C(F)(F)F)ccc1F)C1CCCC1	14.2%
CN1CCN(CCCN2c3ccccc3Sc3ccc(S(=O)(=O)N(C)C)cc32)CC1.CS(=O)(=O)O	-20.9%
O=C(CN1C(=O)CCC1=O)Nc1nc(-c2cccs2)cs1	3.49%
Cc1ccc(OCc2ccc(C(=O)N3CCCC3)o2)c([N+](=O)[O-])c1	-6.76%
Oc1ccc(/C=N/Nc2ccc(C(F)(F)F)cn2)c(O)c1	14.8%
Cc1ccc(OCc2cc(C(=O)N(C)CCc3ccccn3)no2)cc1C	0.159%
